Reference: the supplement of paper PMC3334620
The full ranking holds about 33,000 sequences; the median of “E-score (-0.5 to 0.5)” is about -0.016, and the highest 2% start at about 0.32. Some of the results follow.

Each sequence was assayed against T1, Stp1 (UniProt B3LFK1) (assay: PBM E-score (8-mer binding enrichment) (E-score (-0.5 to 0.5)); higher = stronger / more preferred TF binding; most listed sequences are background and not binding sites). Settings: protein concentration: 200 nM; construct: GST-full length.
T1 sequence: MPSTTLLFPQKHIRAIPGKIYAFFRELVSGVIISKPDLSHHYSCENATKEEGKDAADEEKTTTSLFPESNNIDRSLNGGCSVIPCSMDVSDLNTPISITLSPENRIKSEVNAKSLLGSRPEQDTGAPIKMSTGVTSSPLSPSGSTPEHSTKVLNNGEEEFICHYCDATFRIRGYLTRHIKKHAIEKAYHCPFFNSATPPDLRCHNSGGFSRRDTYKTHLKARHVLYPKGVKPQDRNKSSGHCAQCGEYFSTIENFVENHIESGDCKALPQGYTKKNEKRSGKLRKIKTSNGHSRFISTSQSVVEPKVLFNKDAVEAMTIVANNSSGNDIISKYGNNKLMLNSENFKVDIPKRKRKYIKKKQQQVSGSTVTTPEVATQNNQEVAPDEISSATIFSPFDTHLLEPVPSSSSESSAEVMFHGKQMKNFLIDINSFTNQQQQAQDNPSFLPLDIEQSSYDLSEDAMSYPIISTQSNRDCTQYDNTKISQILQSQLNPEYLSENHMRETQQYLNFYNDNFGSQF
Outline: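 Detection of bound protein used fluorescent anti-GST, with scans normalised by masliner. The proteins were GST-tagged yeast transcription factors applied at about 100-200 nM to universal all-10-mer Agilent arrays made double-stranded by primer extension. Each ungapped eight-base word, pooled with its reverse complement, was scored with an E-score from the Universal PBM Analysis Suite.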

Going from AGTTTTCC to ATGCAGAA, the “PBM E-score” value falls from 0.0808 to 0.0791.

First: CCAGCGGG
Second: AAAACACG
The “PBM E-score” value of the first is lower: -0.14 for the first, 0.157 for the second.

First: ATATGTAG
Second: GCTGGCTA
The “PBM E-score” value of the first is higher: -0.0608 for the first, -0.329 for the second.

First: ATGTGCAG
Second: CCTAGGGC
The “PBM E-score” value of the first is lower: -0.239 for the first, -0.151 for the second.

Compared with CATGAATG, ATTATTAC is higher in “PBM E-score” value: 0.0464 for the first, 0.0641 for the second.

Compared with CGAATACA, ATATCATG is lower in “PBM E-score” value: 0.0367 for the first, -0.104 for the second.

First: CCTTCTAA
Second: AAAACGGC
The “PBM E-score” value of the first is lower: -0.121 for the first, 0.403 for the second.

Going from CGGAACAA to CTGGACGA, the “PBM E-score” value falls from 0.0927 to -0.224.

Compared with CGTGGGCC, AGCAAAAT is higher in “PBM E-score” value: 0.0554 for the first, 0.124 for the second.

Going from GAACTTAC to GGTGGCGA, the “PBM E-score” value falls from 0.102 to -0.115.

First: CACATACC
Second: CGGACAAA
The “PBM E-score” value of the first is lower: -0.0489 for the first, 0.0563 for the second.

Compared with GTCACGAA, AGCTTCTC is lower in “PBM E-score” value: 0.0128 for the first, -0.318 for the second.

Compared with AATGTTAC, CGGTCTTA is lower in “PBM E-score” value: 0.155 for the first, -0.149 for the second.

Going from AGTCGGTC to CGCTTTTC, the “PBM E-score” value rises from -0.278 to 0.0461.

First: GACAAGAC
Second: TCCAAACA
The “PBM E-score” value of the first is lower: -0.118 for the first, 0.0389 for the second.

Compared with AACGTTGT, CGAAGACG is higher in “PBM E-score” value: -0.128 for the first, -0.018 for the second.

First: CAGTGAGA
Second: ATACCTGG
The “PBM E-score” value of the first is higher: -0.108 for the first, -0.284 for the second.

Going from CGATGTGA to CGTCTTAA, the “PBM E-score” value rises from -0.148 to 0.0546.

Compared with GTTTATGA, ATCTTGAA is lower in “PBM E-score” value: 0.0508 for the first, -0.0199 for the second.

Going from ACAGGGTC to AGGGTACA, the “PBM E-score” value rises from -0.232 to -0.0897.

Going from AATCAGCC to TTCTTCAA, the “PBM E-score” value rises from -0.112 to 0.121.

First: CTGTTGTC
Second: TAAGATAA
The “PBM E-score” value of the first is higher: 0.0748 for the first, 0.0593 for the second.

Going from CTTTTACC to CTCTGGCA, the “PBM E-score” value falls from 0.0224 to -0.203.

Going from CCCTACGA to CGACCTCA, the “PBM E-score” value falls from 0.00651 to -0.0976.

Going from ACGAGGAG to AAGTGGGC, the “PBM E-score” value rises from -0.115 to 0.0237.

Going from AAAAGTTT to ATCAGCAT, the “PBM E-score” value falls from 0.0837 to 0.0572.

First: ATGAACCA
Second: ACCATACC
The “PBM E-score” value of the first is higher: 0.107 for the first, -0.159 for the second.

First: AATATACC
Second: CCCAGAGA
The “PBM E-score” value of the first is higher: -0.00864 for the first, -0.224 for the second.

Compared with CATGTGTC, CAACATTA is higher in “PBM E-score” value: -0.0637 for the first, 0.0679 for the second.

Compared with ACGTCGAC, ACCACTCT is lower in “PBM E-score” value: -0.0461 for the first, -0.173 for the second.

First: ATACCAAG
Second: CTGCCCAC
The “PBM E-score” value of the first is higher: 0.133 for the first, -0.168 for the second.

First: GCATAAGC
Second: ACTCCTAC
The “PBM E-score” value of the first is higher: -0.00045 for the first, -0.138 for the second.

First: AGACTCGG
Second: TATGCTGA
The “PBM E-score” value of the first is lower: -0.332 for the first, 0.00188 for the second.

Compared with ACTGCAAA, CCCTAACC is lower in “PBM E-score” value: 0.0211 for the first, -0.0451 for the second.

Compared with CCTGGCAG, CCGTGGAA is higher in “PBM E-score” value: -0.189 for the first, 0.249 for the second.

First: CCGGTTCC
Second: ACTTATCG
The “PBM E-score” value of the first is higher: -0.0976 for the first, -0.107 for the second.

Going from CGAGCCCG to CCTACTAA, the “PBM E-score” value falls from -0.0629 to -0.0697.

First: TGCGAGAA
Second: ACCACGGA
The “PBM E-score” value of the first is lower: -0.203 for the first, -0.0752 for the second.

First: GCAGTGCA
Second: TAACTGAA
The “PBM E-score” value of the first is lower: -0.0796 for the first, 0.00319 for the second.

Going from CTGAGCTA to ACTTTTCG, the “PBM E-score” value rises from -0.238 to 0.144.

First: TTAGAAAA
Second: CACTTGTA
The “PBM E-score” value of the first is lower: 0.0226 for the first, 0.0432 for the second.

Going from CAGTATCA to ATGCCACG, the “PBM E-score” value rises from 0.0382 to 0.275.

First: GTATGGCA
Second: GTCAGCTA
The “PBM E-score” value of the first is higher: 0.134 for the first, -0.175 for the second.

Compared with ATATTGTG, ATTAACAG is higher in “PBM E-score” value: 0.0646 for the first, 0.0966 for the second.

Going from AGAGGCAC to CAGTTCAC, the “PBM E-score” value falls from 0.366 to -0.0554.

Compared with GTGCGCGA, CACACAAA is higher in “PBM E-score” value: 0.0326 for the first, 0.148 for the second.

Compared with ACTGGCCT, TAAATATA is higher in “PBM E-score” value: -0.306 for the first, 0.303 for the second.

Compared with GCTTGGCA, GTCAAAAA is higher in “PBM E-score” value: -0.156 for the first, 0.0881 for the second.

Going from CTTCGAGA to CCTAGTCA, the “PBM E-score” value falls from -0.0597 to -0.249.

Compared with AAAGTGAC, ACGACAAG is lower in “PBM E-score” value: -0.0288 for the first, -0.0648 for the second.

Going from GACAGTCC to ACAGGCGG, the “PBM E-score” value rises from -0.261 to 0.0165.

Compared with AGGTACGG, ATGACATG is lower in “PBM E-score” value: 0.15 for the first, -0.118 for the second.

Compared with CAGAGTAG, ACGGCTGG is higher in “PBM E-score” value: 0.00396 for the first, 0.139 for the second.

First: CGCTGATA
Second: CATTAACA
The “PBM E-score” value of the first is lower: 0.0661 for the first, 0.134 for the second.

First: CGACTGAG
Second: AGTGGAAT
The “PBM E-score” value of the first is lower: -0.139 for the first, 0.0574 for the second.

Going from CCCCGCCG to GAGTTGTA, the “PBM E-score” value falls from 0.0774 to -0.0134.

First: ATAACTTA
Second: CATCATGA
The “PBM E-score” value of the first is higher: 0.212 for the first, -0.0811 for the second.

Compared with ACGACTCC, AACCGCAG is higher in “PBM E-score” value: -0.258 for the first, -0.218 for the second.

Compared with CATTGTAA, ACCGCTGC is lower in “PBM E-score” value: 0.0175 for the first, -0.0821 for the second.

Going from AACCGAGG to CGTTCCTC, the “PBM E-score” value rises from -0.205 to 0.0526.

Compared with CACTGTTA, CATCAGTA is higher in “PBM E-score” value: -0.159 for the first, -0.121 for the second.

Going from AGCTGAAT to CCTAACGC, the “PBM E-score” value rises from -0.0291 to 0.278.

Compared with CTGACCTA, GGAGGGCC is lower in “PBM E-score” value: -0.204 for the first, -0.285 for the second.

First: ACCACACA
Second: ATAACCTG
The “PBM E-score” value of the first is higher: 0.00829 for the first, -0.319 for the second.

Compared with ATGATTGA, ACAGCTGC is lower in “PBM E-score” value: 0.0524 for the first, -0.0656 for the second.

First: AAATTGTT
Second: ATCTGCCA
The “PBM E-score” value of the first is higher: 0.179 for the first, -0.102 for the second.

Going from CTCGCTTA to CCACGCAC, the “PBM E-score” value rises from 0.0689 to 0.07.

Going from ATATGGTC to AAGCGGGC, the “PBM E-score” value falls from -0.0332 to -0.248.

Compared with ATACCTCG, CCTATCGC is lower in “PBM E-score” value: 0.108 for the first, 0.0771 for the second.

Compared with AAGTCGCA, CCATAAGC is lower in “PBM E-score” value: 0.0561 for the first, -0.0877 for the second.

Compared with AATCGCGA, CCGATCCG is lower in “PBM E-score” value: 0.0407 for the first, -0.00424 for the second.

Going from TATGTCAA to AGACGGCA, the “PBM E-score” value rises from 0.151 to 0.449.

Compared with ATGGCGCC, CACTGTAG is lower in “PBM E-score” value: 0.34 for the first, 0.222 for the second.

Compared with ACTCGACC, ATAGATAA is higher in “PBM E-score” value: -0.222 for the first, 0.113 for the second.

First: CCGGTAAA
Second: AAGAGAGC
The “PBM E-score” value of the first is higher: -0.0175 for the first, -0.12 for the second.

Going from CAGCACTG to GGCAAGGA, the “PBM E-score” value rises from -0.0347 to 0.103.

Going from CCTGTGCA to CAGACCAG, the “PBM E-score” value falls from -0.0659 to -0.236.

Compared with CCAAAGAA, AGACATTC is lower in “PBM E-score” value: 0.068 for the first, -0.19 for the second.

Compared with AGGGTCTG, GATTGACA is higher in “PBM E-score” value: -0.329 for the first, 0.0335 for the second.

Compared with AGTCTAAT, AAGCCCGC is higher in “PBM E-score” value: -0.0659 for the first, 0.0229 for the second.

First: AGCCATCG
Second: GACTGATC
The “PBM E-score” value of the first is lower: -0.0975 for the first, -0.0371 for the second.

Compared with GATTGACC, ACGAGCCA is higher in “PBM E-score” value: -0.214 for the first, -0.0521 for the second.

Compared with AGTACCGA, AGAGCGCC is higher in “PBM E-score” value: -0.0516 for the first, 0.307 for the second.

First: CCACAGGC
Second: GCCACAAC
The “PBM E-score” value of the first is lower: -0.242 for the first, 0.152 for the second.

Compared with GTGGGAAC, CAGCTTCC is lower in “PBM E-score” value: -0.00564 for the first, -0.135 for the second.

First: GGCGCCAC
Second: ACACCCCC
The “PBM E-score” value of the first is higher: 0.384 for the first, -0.409 for the second.
